From patent US20160199524A1, “RADIOSENSITIVITY OF FLUOROPHORES AND USE OF RADIOPROTECTIVE AGENTS FOR DUAL-MODALITY IMAGING” (Immunomedics, Inc., priority 2015, published 2016) come the findings set out here.

Where no end group is shown, it is not given here.

The nature of data set [1]: PET/CT images, region of interest ratios. The data set is classed as in vivo, mice. The settings on record: male, BALB/c nude, mouse, iv, total radioactivity, TF2 pretargeted; read-out: tumor-to-background ratio of PET signal. The procedure: PET images were acquired with an Inveon animal PET/CT scanner (Siemens Preclinical Solutions, Knoxville, Tenn.). PET emission scans were acquired for 15 minutes, preceded by CT scans for anatomical reference (spatial resolution 113 μm, 80 kV, 500 μA, exposure time 300 msec).
Uptake in the tumor was evaluated quantitatively by drawing regions of interest (ROI), using a 50% threshold of maximum intensity. A region in the abdomen was used as background region.

Data set [2] concerns nude mice bearing LS174T human colonic xenografts. Description: Biodistribution of ^18F-labeled agents with or without TF2 pretargeting. The settings on record: TF2 pretargeted, […]. An excerpt:
(§1) Six-week-old NCr nu-m female nude mice were implanted s.c. with the human colonic cancer cell line, LS174T (ATCC, Manassas, Va.).
(§2) Tissues were weighed and counted together with a standard dilution prepared from each of the respective products. Due to the short physical half-life of ^18F, standards were interjected between each group of tissues from each animal. Uptake in the tissues is expressed as the counts per gram divided by the total injected activity to derive the percent-injected dose per gram (% ID/g).

Experiment in data set [3]: as above
The settings on record: female, NCr nu-m nude, mouse, in vivo, iv, total radioactivity, […] post-injection, i.v., TF2 given 16 h before.
Text: as §1, §2

A short description of data set [4]: Stability of Al^18F(IMP485)/IMP487 in human serum at 37° C. The settings on record: after 4 h. The data set is classed as in vitro ADME. The procedure:
A kit containing 40 nmol of IMP485 or IMP487, 20 nmol AlCl3, 0.1 mg ascorbic acid and 0.1 g trehalose adjusted to pH 3.9 was reconstituted with purified ^18F^− in 200 μL saline and heated 106° C. for 15 min. The reaction mixture was then diluted with 800 μL water and placed on an HLB column. […] The radiolabeled peptide in […] was mixed with 250 μL of fresh human serum in a vial and incubated at 37° C.
The purified radiolabeled peptide in 50 μL 1:1 EtOH/H2O was mixed with 150 μL of human serum and placed in the HPLC autosampler heated to 37° C. and analyzed by RP-HPLC.

The tissue uptake is the share of the injected amount in each gram of the tissue. With `C[C@@H](NC(=S)Nc1ccc(CC2CN(CC(=O)O)CCN(CC(=O)O)CCN2CC(=O)O)cc1)C(=O)N[C@H](CCCCNC(=O)CNC(=O)CCC(=O)NCCc1c[nH]cn1)C(=O)N[C@H](Cc1ccc(O)cc1)C(=O)N[C@H](CCCCNC(=O)CNC(=O)CCC(=O)NCCc1c[nH]cn1)C(N)=O` (single isomer, unassigned) [Al^18F(IMP449)], the tissue to tissue ratio at 2 h in data set [1] was found to be 66. The “Tumor/nontumor ratio, blood” value in data set [2] came out at 146±63. Moreover, the “Tumor/nontumor ratio, kidneys” value in data set [2] stood at 2.0±1.0. Besides, the “Tumor/nontumor ratio, liver” value in data set [2] was 59±24. For the same compound, the “Tumor/nontumor ratio, lung” value in data set [2] amounted to 38±15. Besides, the tissue uptake at […] in data set [3] (% ID/g Blood) is 0.04 ± 0.02 %ID/g; in data set [3] (% ID/g Brain), 0.01 %ID/g; in data set [3] (% ID/g Kidney) it was 3.44 ± 0.99 %ID/g; in data set [3] (% ID/g Large Int.), 0.03 ± 0.01 %ID/g; in data set [3] (% ID/g Liver), 0.11 ± 0.03 %ID/g; in data set [3] (% ID/g Lung), 0.17 ± 0.04 %ID/g. The tissue uptake at […] in data set [3] (% ID/g Muscle) came to 0.1 ± 0.2 %ID/g; in data set [3] (% ID/g Scapula) it was 0.04 ± 0.02 %ID/g; in data set [3] (% ID/g Small Int.) it was 0.27 ± 0.1 %ID/g; in data set [3] (% ID/g Spine) it was 0.08 ± 0.03 %ID/g; in data set [3] (% ID/g Spleen), 0.08 ± 0.02 %ID/g; in data set [3] (% ID/g Stomach) it was 0.12 ± 0.18 %ID/g. Further, the tissue uptake at […] in data set [3] (% ID/g Tumor) was 6.01 ± 1.72 %ID/g.

As to “IMP485: NOTA-MPAA di-HSG hapten-peptide used for pretargeting, structure in FIG. 12 (Lys-Tyr-Lys; not fully specified (residues 1, 2, 3, N-terminus, C-terminus); also: NOTA-MPAA attached, site not shown)”, in data set [4], the “^18F above background at the void volume (RP-HPLC)” value was “No detectable ^18F above background”.
